In a collection of fitness landscapes (doi:10.1126/science.1257360) one finds enrichment ratio data, which are given here for 195 variants.

The chains are these.
B1: PhoQ; a variant is named by its letters at X, in order, P23837 (parent)
chain: MKKLLRLFFPLSLRVRFLLATAAVVLVLSLAYGMVALIGYSVSFDKTTFRLLRGESNLFYTLAKWENNKLHVELPENIDKQSPTMTLIYDENGQLLWAQRDVPWLMKMIQPDWLKSNGFHEIEADVNDTSLLLSGDHSIQQQLQEVREDDDDAEMTHSVAVNVYPATSRMPKLTIVVVDTIPVELKSSYMVWSWFIYVLSANLLLVIPLLWVAAWWSLRPIEALAKEVRELEEHNRELLNPATTRELTSLVRNLNRLLKSERERYDKYRTTLTDLTHSLKTPLXXLQXXLRSLRSEKMSVSDAEPVMLEQISRISQQIGYYLHRASMRGGTLLSRELHPVAPLLDNLTSALNKVYQRKGVNISLDISPEISFVGEQNDFVEVMGNVLDNACKYCLEFVEISARQTDEHLYIVVEDDGPGIPLSKREVIFDRGQRVDTLRPGQGVGLAVAREITEQYEGKIVAGESMLGGARMEVIFGRQHSAPKDE

The other results are listed elsewhere or left out.

In the test the parent is B1. Put plainly: enrichment ratio after two sorts for PhoP signalling (ratio (wild type AVST 3.29)); higher = more functional. The settings on record: with PhoP (E. coli).
With VWTE, the enrichment ratio is at most 0.25.

Consider NASS, for which the enrichment ratio is at most 0.25.

Regarding KKRI, the enrichment ratio was at most 0.25.

Take HIFC: the enrichment ratio was at most 0.25.

RRCQ: the enrichment ratio is at most 0.25.

As for RWHI, the enrichment ratio is at most 0.25.

Turning to DNIS, the enrichment ratio is at most 0.25.

As for TMHE, the enrichment ratio was at most 0.25.

For LPDH, the enrichment ratio is at most 0.25.

For NQDT, the enrichment ratio is at most 0.25.

In the case of MPGS, the enrichment ratio is at most 0.25.

Take YLAF: the enrichment ratio is at most 0.25.

As to FFTK, the enrichment ratio was at most 0.25.

As to YPVM, the enrichment ratio was at most 0.25.

Regarding PISF, the enrichment ratio was at most 0.25.

In the case of NESY, the enrichment ratio is at most 0.25.

As for SGSN, the enrichment ratio is 13.3.

Consider EPWP, for which the enrichment ratio is at most 0.25.

For LDVH, the enrichment ratio was at most 0.25.

As to KGMV, the enrichment ratio was at most 0.25.

As to IHYM, the enrichment ratio is at most 0.25.

Turning to DGEP, the enrichment ratio is at most 0.25.

MAIN: the enrichment ratio was at most 0.25.

As for PHSR, the enrichment ratio is at most 0.25.

As for GREN, the enrichment ratio is at most 0.25.

Regarding PSAF, the enrichment ratio is at most 0.25.

Take DQLS: the enrichment ratio was at most 0.25.

As to PDYG, the enrichment ratio is at most 0.25.

On to SFLT, for which the enrichment ratio was at most 0.25.

With LTLC, the enrichment ratio is at most 0.25.

As to DIRA, the enrichment ratio was at most 0.25.

With ACTP, the enrichment ratio was at most 0.25.

Regarding IEIS, the enrichment ratio was at most 0.25.

Consider IPLP, for which the enrichment ratio was at most 0.25.

As to ELHI, the enrichment ratio is at most 0.25.

On to NFEA, for which the enrichment ratio is at most 0.25.

Turning to NSIK, the enrichment ratio was at most 0.25.

Consider NIYT, for which the enrichment ratio was at most 0.25.

As for IPKN, the enrichment ratio is at most 0.25.

As for DNHM, the enrichment ratio is at most 0.25.

As to TVGT, the enrichment ratio was found to be 5.

In the case of MVLM, the enrichment ratio stood at 9.33.

For the variant DGKA, the enrichment ratio is at most 0.25.

Regarding VDNQ, the enrichment ratio was at most 0.25.

Turning to MYPG, the enrichment ratio was at most 0.25.

For the variant GQWI, the enrichment ratio is at most 0.25.

Consider PDFF, for which the enrichment ratio was at most 0.25.

MDTV: the enrichment ratio was at most 0.25.

For VHKC, the enrichment ratio is at most 0.25.

Regarding DTLQ, the enrichment ratio stood at 0.616.

For the variant LWHS, the enrichment ratio is at most 0.25.

As to LRFK, the enrichment ratio was at most 0.25.

As to VWTS, the enrichment ratio is at most 0.25.

EAAD: the enrichment ratio is at most 0.25.

Regarding VGKP, the enrichment ratio is at most 0.25.

For the variant SDYK, the enrichment ratio was at most 0.25.

For MQGH, the enrichment ratio is at most 0.25.

Take EYDM: the enrichment ratio is at most 0.25.

With QHRD, the enrichment ratio was at most 0.25.

On to ECFN, for which the enrichment ratio is at most 0.25.

Regarding STYH, the enrichment ratio is at most 0.25.

Turning to TIWP, the enrichment ratio is at most 0.25.

IVSH: the enrichment ratio is at most 0.25.

In the case of MMMP, the enrichment ratio was at most 0.25.

On to YFDM, for which the enrichment ratio is at most 0.25.

On to AVGT, for which the enrichment ratio was at most 0.25.

DFTT: the enrichment ratio was at most 0.25.

For LLAM, the enrichment ratio stood at 0.662.

In the case of GWGL, the enrichment ratio was at most 0.25.

On to MLRY, for which the enrichment ratio stood at 0.894.

Turning to TYYH, the enrichment ratio was at most 0.25.

Take EIYM: the enrichment ratio was at most 0.25.

Regarding RPGV, the enrichment ratio is at most 0.25.

As to SRSW, the enrichment ratio is at most 0.25.

Take QSMC: the enrichment ratio turned out to be 10.1.

For the variant RMQL, the enrichment ratio is at most 0.25.

For TSEA, the enrichment ratio is at most 0.25.

In the case of MTTG, the enrichment ratio is at most 0.25.

On to MEVP, for which the enrichment ratio was at most 0.25.

For WGGQ, the enrichment ratio is at most 0.25.

As for FVCG, the enrichment ratio is at most 0.25.

Turning to DDPL, the enrichment ratio was at most 0.25.

Turning to EFVN, the enrichment ratio worked out at 1.44.

Regarding HWTS, the enrichment ratio was at most 0.25.

Consider WIHA, for which the enrichment ratio was at most 0.25.

With QLHD, the enrichment ratio was at most 0.25.

NSVH: the enrichment ratio was at most 0.25.

As to PIEW, the enrichment ratio is at most 0.25.

In the case of YSFI, the enrichment ratio is at most 0.25.

Take LSVR: the enrichment ratio was at most 0.25.

Consider ADFP, for which the enrichment ratio was at most 0.25.

In the case of VCPW, the enrichment ratio was at most 0.25.

On to KEIC, for which the enrichment ratio was at most 0.25.

For HRLH, the enrichment ratio is at most 0.25.

As for FIHG, the enrichment ratio was at most 0.25.

For TVCL, the enrichment ratio stood at 1.67.

Regarding PSFW, the enrichment ratio is at most 0.25.

Consider RPWC, for which the enrichment ratio was at most 0.25.

For the variant TQIF, the enrichment ratio is at most 0.25.

In the case of VDVA, the enrichment ratio is at most 0.25.

In the case of KQHA, the enrichment ratio was at most 0.25.

In the case of YYKW, the enrichment ratio was at most 0.25.

With LDKS, the enrichment ratio is at most 0.25.

As to ARRA, the enrichment ratio was at most 0.25.

On to PQST, for which the enrichment ratio is at most 0.25.

As to VHWK, the enrichment ratio was at most 0.25.

Regarding NYTC, the enrichment ratio was at most 0.25.

As to DGQL, the enrichment ratio is at most 0.25.

Consider WQPD, for which the enrichment ratio was at most 0.25.

As for DGCM, the enrichment ratio is at most 0.25.

For AKVS, the enrichment ratio amounted to 13.5.

Turning to GNCF, the enrichment ratio was found to be 6.9.

As for AMVH, the enrichment ratio was found to be 5.86.

Take FHPK: the enrichment ratio was at most 0.25.

As to NATR, the enrichment ratio was at most 0.25.

Turning to RYNI, the enrichment ratio is at most 0.25.

As for MCVH, the enrichment ratio was at most 0.25.

Turning to LLND, the enrichment ratio is at most 0.25.

For WYGF, the enrichment ratio is at most 0.25.

Consider PCHM, for which the enrichment ratio was at most 0.25.

Consider PGDQ, for which the enrichment ratio is at most 0.25.

With DGWM, the enrichment ratio was at most 0.25.

Consider GHAV, for which the enrichment ratio is at most 0.25.

Consider FSEP, for which the enrichment ratio was at most 0.25.

For the variant IETM, the enrichment ratio is at most 0.25.

Regarding IYYE, the enrichment ratio is at most 0.25.

Consider YSWK, for which the enrichment ratio is at most 0.25.

For the variant THTG, the enrichment ratio is 8.26.

As to IADP, the enrichment ratio was at most 0.25.

As for QTNM, the enrichment ratio is at most 0.25.

With VNGL, the enrichment ratio was at most 0.25.

As for CGGF, the enrichment ratio was at most 0.25.

For AVCM, the enrichment ratio is 15.4.

In the case of PNKG, the enrichment ratio is at most 0.25.

ENPA: the enrichment ratio is at most 0.25.

For SHDS, the enrichment ratio is at most 0.25.

With EIPV, the enrichment ratio was at most 0.25.

In the case of VESM, the enrichment ratio is 0.706.

On to RKPG, for which the enrichment ratio is at most 0.25.

Consider KRRM, for which the enrichment ratio was at most 0.25.

With CSCV, the enrichment ratio came to 0.507.

Take DLWH: the enrichment ratio was at most 0.25.

As to NCCS, the enrichment ratio is at most 0.25.

With FHHY, the enrichment ratio is at most 0.25.

Take KVIS: the enrichment ratio was at most 0.25.

Regarding DIPS, the enrichment ratio was at most 0.25.

As for DDGP, the enrichment ratio was at most 0.25.

As to TCNF, the enrichment ratio is 3.86.

Consider HFQH, for which the enrichment ratio was at most 0.25.

Take SEGT: the enrichment ratio came to 1.26.

Regarding DWIF, the enrichment ratio was at most 0.25.

For the variant FLKV, the enrichment ratio was at most 0.25.

With FSTG, the enrichment ratio is at most 0.25.

Turning to LKSG, the enrichment ratio was at most 0.25.

Take YPDI: the enrichment ratio is at most 0.25.

For WMIK, the enrichment ratio was at most 0.25.

In the case of SQAA, the enrichment ratio came out at 5.77.

For the variant SAEK, the enrichment ratio is at most 0.25.

On to VKAA, for which the enrichment ratio was at most 0.25.

Take LTRD: the enrichment ratio is at most 0.25.

MEFV: the enrichment ratio stood at 9.93.

As for HMHI, the enrichment ratio was at most 0.25.

Consider PHFE, for which the enrichment ratio was at most 0.25.

As for TLDA, the enrichment ratio is at most 0.25.

Turning to VWIN, the enrichment ratio is at most 0.25.

Regarding ADLL, the enrichment ratio was determined as 9.99.

Turning to DTWW, the enrichment ratio is at most 0.25.

As to QKRS, the enrichment ratio was at most 0.25.

In the case of DAKN, the enrichment ratio was at most 0.25.

Regarding SELW, the enrichment ratio came to 0.709.

Turning to VDCE, the enrichment ratio was at most 0.25.

With LTQQ, the enrichment ratio is at most 0.25.

Take AWHI: the enrichment ratio was at most 0.25.

As to YIGY, the enrichment ratio is 0.435.

Take LPKW: the enrichment ratio was at most 0.25.

Turning to IMHF, the enrichment ratio was at most 0.25.

Consider IVFF, for which the enrichment ratio is at most 0.25.

As to RECW, the enrichment ratio was at most 0.25.

In the case of SDFI, the enrichment ratio was at most 0.25.

Regarding IWAY, the enrichment ratio is at most 0.25.

Consider HNDT, for which the enrichment ratio is at most 0.25.

Turning to WVIL, the enrichment ratio was at most 0.25.

For SMQL, the enrichment ratio worked out at 12.1.

With GCPN, the enrichment ratio is at most 0.25.

In the case of KYLG, the enrichment ratio is at most 0.25.

Turning to SFQM, the enrichment ratio is at most 0.25.

As to MDTR, the enrichment ratio is at most 0.25.

Regarding DYTD, the enrichment ratio is at most 0.25.

Consider QQTE, for which the enrichment ratio was at most 0.25.

With LQFK, the enrichment ratio is at most 0.25.

On to KEIT, for which the enrichment ratio was at most 0.25.

Consider SVAH, for which the enrichment ratio came out at 12.7.

For the variant AWLL, the enrichment ratio is 0.288.

TCLC: the enrichment ratio stood at 23.4.

As for QVKG, the enrichment ratio was at most 0.25.
